# Laboratory results: the RNAGym collection of RNA variant scans (doi:10.7554/elife.90254)
# The source gives no read counts; variants with many changes may rest on few reads.
# B1: OR4K15 (parent)
# chain: GUUAACGGUCAUAGGCCAUGGAAACUAGGAGCACCAUUUCGCUGCCAGUGAAGAAAUGAACAAAGAAAAUCUGGGCCAGGCAGGCAUCAAAAGAAAUAGUCUUGCGCUCAACCAGAAAGUCUGUAAUCAUUUUAAGGGUA
# Variants of: B1
# Assay: self-cleavage, relative activity (ratio to wild type); higher = more cleavage; in vitro, sequencing; the parent is a self-cleaving ribozyme
row,Variant,self-cleavage
1,A47U A60G A94G,0.9
2,U43C A62U A98U,2.28
3,U37C A59G U133A,1.41
4,U12C A13G A51G A54G,0.98
5,G50U A62G A69U A89G U122C,1.98
6,A11U G83U U132C,0.35
7,U39C G58A A59G C112U,0.01
8,A56G U122C A135G,0.71
9,A11G A33G A52G G79A U87C U122C,0.04
10,U38C U43A U72C U100C,0.52
11,U37C A59G A62G,0.8
12,U39A U87C U102C A135U,1.85
13,A55G U70C A98G U103C A114U,0
14,U9A A23U A27G A90G A111U,0.08
15,U43G A63U A78U,0.73
16,U2C A13G U38C,1.31
17,A47U A67C A96G,2.24
18,C34U U72A A95G A98G U108C A114U,0
19,A23G A62G A63U C88A,0.65
20,U2C A56G A111G A114G U139A,0.08
21,A22U A66G A78U,0.25
22,A52G A59G A90G A92G,0.44
23,C45U A63G U131C,1.27

row,Variant,self-cleavage
1,A52U U70C A117G,2.17
2,A18U A24U A63U A82G A94C,0.36
3,A94G U102C G104A U127C,0.01
4,A11G A30G U57C A110G,0.11
5,G29A A91G A114G,0.05
6,U2C A67G A78G U120C,0.31
7,A4C U9C A63G A68G U103A,1.18
8,G73U A90G A96U,0.17
9,C45U A59G A86G A117C,0.38
10,U37C U103A U130C U132A,0.16
11,A11G U38C A69G A95U A96G U100C A129G,0.16
12,A47G A82U A134G,0.11
13,A68G G75U A94U U120C A135G,0.05
14,A47U U103C U131C,0.2
15,U38C U87C U139A,1.98
16,A11G A82G U87C A91G U124G,0.04
17,A4G A96G U100C,0.68
18,A52G U57C A59G U100A,0.52
19,A24G U26C U127A,1.61
20,U9C U49C A82U,0.16
21,U38C U72C A94C,0.13
22,U39A A63G A82U,0.18
23,U26A A66G U122C,1.17

row,Variant,self-cleavage
1,U19C A22G A86U A117G A129C,0.72
2,A64G A98U A117G A129G,1.87
3,A78U A95G U132A,0.12
4,U37C U72C A117U,0.3
5,A62G A111G A125G A126G,0
6,A5C A13U G119A,1.06
7,A89G C109A A126G A135G,0.13
8,A52G A60G A64G A118G,1.1
9,A59G A60G A82G U132C,0.33
10,U57C A62G U102C,2.65
11,A27G A68G A82G U124C A140G,0.33
12,A52G A66G U132C,1.73
13,A11G A54G G75A A111G A117U,0.03
14,A13G U19A A22G A59G U131C,1.35
15,U3A A64G U108C A110G,0.01
16,A18U U38C A67G A86U,1.58
17,A5G A24C A63G,0.91
18,A66G U72C U132C,0.28
19,G7A G104A A116G U133C,0.02
20,U9C U37C A82G C107U,0.07
21,A24G A27G U39C A63G A92G U127C,0.4
22,A52U C77A A89U A96G,0.77
23,A92G U97C A117G A126G U132A,0.61

row,Variant,self-cleavage
1,A11G A18U A24U U57C A90G,0.85
2,A36G A54G U102C A111G,0
3,A90G U122C U127A,0.76
4,A78U A86G U87A U108G,0
5,U38C U43C A78G,0.05
6,A68G U108C A116G,0
7,G20A A30U A66G A91C C107A,0.03
8,A56U G93A A116G A117G,0.73
9,A22G A56G A86G U103A,0.96
10,A33C A62U A140U,1.66
11,C61U A91G A126G,0.85
12,A5G A60G A94G,1.22
13,A18G U87C U103C A126C,0.27
14,U2C A5G A36C,1.55
15,A67G G83A U108C,0
16,U2C A67G U103C,0.79
17,U38A A68G U102C,2.15
18,A5G A18U U37C,0.71
19,A22G U38C A56G A78U,0.12
20,U3C A24G U49C A56G U72A A135G,0.16
21,U19C A33U U49C U102C,1.88
22,U26C A27G A89U,1.43
23,A78G U97C U122C,0.1

row,Variant,self-cleavage
1,A52U U122C U130C,1.65
2,U49C A56G A60G A91G G106A,0.02
3,A68G A96G U132C,0.81
4,A22G C46U U57C A82G A116G,0.19
5,U2C C16G A116U,0.21
6,A22U A23G U49C A63U A94U A118G,1.46
7,U2C A59G A60G A64U C109U U124C,0.13
8,A47U U70C U127C,0.05
9,A23G A92G U102C A118U A135G,1.42
10,A11G A94U U130C U133C,1.13
11,A55G A59G U70C,0.58
12,U26C U37C A125G,0.45
13,A110G U131C G137U,0.13
14,U2A U12C U43C A64U A66U A82U,0.17
15,G65U A66G U72C,0.22
16,A23G U87A C109U,0.36
17,A23G A27U A30G A55G,1.47
18,U38C U39C A94G A95G A110U U139C,1.4
19,A27G A54G G74A,0.29
20,A30G A110G A114G,0.02
21,U9C A52G U70C A118G A135U,0.1
22,A55G A110G U132C,0.1
23,U9C A68U U122C,1.84

row,Variant,self-cleavage
1,A23G A33U A54G U72A A90G U108C,0.02
2,A18G A68G A89G A140G,1.42
3,A60G A64G A82G,0.47
4,U9A A68G U72A A90G U130C,0.06
5,A11G A22G U102A U122C U130C,0.58
6,U12C A55G U87C,0.88
7,A78U A82G U132C,0.07
8,U38C A67G A69G,1.64
9,A18U A33G A118G U120C U127C,0.02
10,A30G A68G U124C,0.68
11,G79A A117G U139C,0.16
12,U37C C77U A82G U120C,1.29
13,A23G U39C U108C A111G,0.04
14,U2C A67G U127A,2.97
15,G80A A95G A96G,0.2
16,A5G U49C U87A,0.69
17,A54G A90G U132C,0.86
18,A23C A66G U108C U122C,0.01
19,U37C C40A A92G,1.02
20,A52G A82C A86U U139C,0.14
21,U3C A11G U43C A129G,0.76
22,A33G A60G A64C,0.58
23,A51G A55G U127C,1.05

row,Variant,self-cleavage
1,A30G G44A U49G A78G G106A,0.08
2,U3G A64U A67G A125G,0.63
3,U49C A96G U100C A110G,0.09
4,A22G U70A A96G,0.51
5,U37C A55G U100C A110G,0.18
6,U19C A24G A51G U108A,0.04
7,U43C A51G A82U A91G,0.22
8,U37C A52G U102C,1.59
9,G28A A94G A126G U127C,0.87
10,U19G A78U U120C U124C,0.14
11,A51U U57G A68G G79A,0.08
12,A51U A62G A118C,1.38
13,A11G U19C U70A,0.65
14,A36G U38A A51G A54G A82G A86G,0.21
15,U38C A82G U108A,0.04
16,A5G U39C A54U,1.18
17,A52G G74U U102C,0.21
18,U26A C46U A47C A82U,0.21
19,A11G A18G U49C A68G A78G U87C U122C,0.15
20,A13G C105U A118G,0.25
21,A23G A89G U108C U120C,0.02
